Test results as given in ChEMBL document CHEMBL4888484, “Replenishing the malaria drug discovery pipeline: Screening and hit evaluation of the MMV Hit Generation Library 1 (HGL1) against asexual blood stage Plasmodium falciparum ,using a nano luciferase reporter read-out” (2022).
Among all 150,000 compounds or so, about 540 (0.36%) showed an effect of 50% or more. The list shows a part of the results.

test system: Plasmodium falciparum; experiment: Primary screen in NF54 nanoGlo assay, in single point, at 2uM, 72h; a lower Z score goes with more inhibition; format: functional, Erythrocyte; conditions: timepoint 72 hour

SMILES | % Inhibition [%] | Z score
Cc1noc(NC(=O)COc2ccc(-c3ccccc3)cc2Cl)n1 | -6 | 1.16
CC(C)c1nc(CN2CCN(c3ncccn3)CC2)cs1 | 0 | 0.05
O=C(c1ccccc1)N1CCO[C@@H](CC2CCCCC2)C1 | -7 | 1.22
O=C1C[C@H](N2CCN(S(=O)(=O)c3cccs3)CC2)C(=O)N1CCc1ccccc1 | -30 | 3
COCCn1ccnc1CN1CC(c2ccncc2)C1 | -7 | 1.29
CNc1nc(C)cc(C(=O)N(CC2CCC2)CC(F)(F)F)n1 | -2 | 0.28
Cc1cc(CN(C)Cc2cn3c(C)cccc3n2)no1 | -24 | 3.72
O=C(c1ccn(C(=O)NC2CCCCC2)n1)N1CCCCC1 | -17 | 2.3
CCCCc1cc(NCCc2c(C)n[nH]c2C)ncn1 | -3 | 0.62
Cc1nn(CC(=O)Nc2cccc(F)c2)c(=O)n1C | -5 | 0.62
O=C(COc1cccc(-c2nnco2)c1)NC(C1CC1)C1CC1 | 6 | -0.72
COC(=O)N(C)CC(=O)N[C@@H](C)c1cccs1 | -1 | 0.06
Cc1ccc(S(=O)(=O)NCCC2CCN(C(=O)NC3CCCCC3)CC2)cc1 | 7 | -1.17
CCOC1CC(O)C12CCN(c1nc(C)cc(C)n1)CC2 (stereo not given) | -19 | 1.62
Cc1noc([C@H](C)Nc2ccc3c(c2)OCO3)n1 | -7 | 1.32
COC(=O)CN1CCC(Nc2ncc(C)c(N(C)C)n2)CC1 | 2 | -0.37
CO[C@H]1C[C@@H](CNc2nc(-c3ccnc(C(F)(F)F)c3)cs2)C1 | -11 | 1.47
O=C(NCc1cccc(C(F)(F)F)n1)c1ccnn1CC(F)(F)F | -4 | 0.64
Cn1c(=O)c2c(n(C)c1=O)n(Cc1ccccc1Cl)c(=O)n2Cc1ccc(Cl)cc1Cl | -7 | 0.93
O=C(c1ccccc1OC(F)F)N1CCN(Cc2ccc(Cl)s2)CC1 | -21 | 1.85
C[C@H](NC(=O)CCc1nc2ccccc2c(=O)[nH]1)c1ccncc1 | -15 | 2.09
Cc1ccc(NC(=O)Cn2cnc3cc4c(cc32)OCCO4)c(C)c1 | -15 | 1.48

SMILES | % Inhibition [%] | Z score
CCc1[nH]nc(-c2cccc(OC)c2)c1NC(=O)C1CCCC1 | 3 | -0.51
O=C(N[C@H](C(=O)O)c1ccccc1)c1n[nH]c2ccccc12 | -5 | 0.64
CCN1CCN(C(=O)CCC2CCN(C(=O)c3ccc4c(c3)OCCO4)CC2)CC1 | -17 | 2.33
CCN1C[C@@H](NC(=O)c2cccc(-c3cc(C)nc4ccccc34)c2)CC1=O | 2 | -0.22
CCC(C)NC(=O)c1coc(CN(Cc2cccc(F)c2)C(C)c2ccccc2)n1 (stereo not given) | -6 | 0.6
COCCn1nc(C(=O)NCCc2c(C)nn(C)c2C)c2c1CCOC2 | -4 | 0.47
Cc1nc(C(C)C)sc1C(=O)N1CCS(=O)(=O)CC1 | -4 | 0.82
O=C(c1sccc1Cl)N1CCN(CC2CC2)[C@@H]2CS(=O)(=O)C[C@@H]21 | -26 | 3.32
C[C@H](NC(=O)c1ccc(-c2[nH]nc3c2CCCc2ccccc2-3)cc1)c1ccccc1 | -11 | 1.54
Cc1ccc(Oc2cc3c(cc2S(=O)(=O)N2CCC(C)CC2)C(=O)Nc2ccc(C)cc2O3)cc1 | -7 | 1.35
Nc1cc(C(=O)N[C@H]2CCCN(C3CCCCCC3)C2)ccn1 | -4 | 0.52
CN(CCN(C)C1CC1)C(=O)c1ncsc1Br | -10 | 1.9
Cc1nn(C[C@H](O)c2ccc(CC(C)C)cc2)c(=O)c(C#N)c1C | 4 | -0.78
CC(C)[C@@H](c1nc(N(C)C)no1)N1CCCS1(=O)=O | -17 | 1.78
O=C(O)Cc1cccc(C(=O)N2CC[C@@H](Oc3ccccc3)C2)c1 | -11 | 1.17
CS(=O)(=O)c1ccc2nc(NC(=O)[C@H]3CC(=O)N(CCc4ccc(F)cc4)C3)sc2c1 | -20 | 2.89
COC(=O)CN1CCN(C(=O)c2ccc3ncsc3c2)CC1=O | -4 | 0.69
CCCN1CCN(CCCNC(=O)C2CCN(Cc3cn(C)c4ccc(OC)cc34)CC2)CC1 | 8 | -1.38
CCn1c(-c2cc(C)cs2)nnc1N1CC[C@H](N2CCN(C(C)C)CC2)C1 | -13 | 1.54
CCc1ccc([C@@H](C)C(=O)Nc2nccc(=O)n2C)cc1 | -6 | 0.63
CN(C)c1ccccc1C(=O)N1CCC(c2nnc(CO)n2C)CC1 | 2 | -0.29
CCC(=O)N(CC)CC(=O)Nc1nc(-c2ccccc2)cn1-c1ccccc1 | -11 | 1.39

SMILES | % Inhibition [%] | Z score
CCOC(=O)NCCC(=O)N[C@@H](C)c1cccs1 | 2 | -0.27
O=C(Nc1cc(S(=O)(=O)N2CCCC2)ccn1)C1CC2CCC1C2 (stereo not given) | -26 | 2.9
Cc1nc(C)c(F)c(NC2CCC3(CC2)NC(=O)NC3=O)n1 (stereo not given) | 14 | -1.59
Cc1csc(NC(=O)[C@@H]2CCCO2)n1 | -1 | 0.28
COC1CCCCCC1NC(=O)N(CC(C)(C)O)C(C)C (stereo not given) | -4 | 0.73
CC[C@H](NCC(=O)N(C)C)c1ccccc1Br | -6 | 0.86
CC(Oc1ccccc1)C(=O)N1CCN(CC(OCc2ccc(C#N)cc2)c2cccc(N3CCCC3)c2)CC1 (stereo not given) | -12 | 1.69
CCN(CC)CC1CCN(C(C)c2nc(C(C)(C)C)no2)C1 (stereo not given) | -4 | 0.44
Cc1ccc(-c2ccc(S(=O)(=O)N3CCC(N)CC3)cc2)cc1C(F)(F)F | 21 | -3.31
O=S(=O)(NCc1ccc2c(c1)OCO2)c1ccc(-c2cnc(C3CCC3)o2)s1 | -12 | 1.32
OC1CC(C2CCCCC2)N(Cc2ccncc2)C1 (stereo not given) | -6 | 0.86
CCc1nccn1CCC(=O)NCCc1nc2ccccc2o1 | -5 | 0.62
COCCOc1ccccc1N1CCN(C(=O)[C@@H]2COCCO2)CC1 | -8 | 1.15
COCCN1C[C@]2(CCCN(C(=O)c3ccc4nccnc4c3)C2)CCC1=O | 1 | -0.08
CC(C)[C@H](CO)CNS(=O)(=O)c1cn[nH]c1 | -14 | 1.32
O=C(NCCC1CCCCO1)C(O)c1ccc(Br)cc1 (stereo not given) | -2 | 0.17
COCc1nc(COc2ccccc2OC)n(C2CCCCC2)n1 | -8 | 0.95
COC(=O)N[C@H]1CCC2C3CC[C@H]4C[C@H](O)CC[C@]4(C)C3CC[C@@]21C (stereo not given in full) | -24 | 3.08
Cc1ccc2cc(C(=O)N(C)Cc3nccn3C)ccc2n1 | -4 | 0.38
CCC(=O)Nc1ccc(-c2nc3c(ccc4ccccc43)o2)cc1 | -8 | 1.55
CN=C(NCCCOCCOC)NCCOc1cccc(C)c1 | -4 | 0.58
C[C@@]1(CO)CN(Cc2ccccc2)C[C@@H]2CN(C(=O)NC3CCCCC3)CCN21 | -7 | 1.03

SMILES | % Inhibition [%] | Z score
CCc1ccc(-c2nn(CC)c(=O)c3c2CCCC3)cc1S(=O)(=O)N1CCCCCC1 | -8 | 1.21
CCn1ccc(C(=O)N2C[C@H]3CNC(=O)[C@]34CCCC[C@@H]24)n1 | -9 | 1.42
Cc1c(Br)cccc1CCNC(=O)c1ncoc1C1CC1 | -7 | 0.91
CCCCOc1ncccc1CNC(=O)c1ocnc1C(F)(F)F | -17 | 1.8
C[C@@]1(C(=O)NC2CCCCCCC2)CN(S(C)(=O)=O)CC(=O)N1Cc1cccc(F)c1 | -17 | 2.17
CCCCN1CCN(C(=O)c2nc3cccnc3n(CC)c2=O)CC1 | -5 | 0.61
O=C1CC[C@@H](CN(Cc2ccccc2)C(=O)C2CC(CCc3ccccc3)=NO2)N1 (stereo not given in full) | -9 | 1.74
COc1cc(NC(=O)Cn2c(C)nc3onc(C)c3c2=O)cc(OC)c1 | 4 | -0.51
CCC(=O)N(Cc1ccc(F)cc1)c1ccc(CC(=O)NCc2ccc(F)cc2)cc1 | -13 | 1.63
CCOC(=O)N1CCC(NC(=O)c2cc(C)c(CC)n(C)c2=O)CC1 | -14 | 2.42
COC1CC(N(C)S(=O)(=O)c2ccc(C#N)nc2)C12CCC2 (stereo not given) | 3 | -0.33
CC(C)Cc1nc(Cc2nc3ccccc3[nH]2)n(-c2ccccn2)n1 | -5 | 0.69
CC1CN(Cc2cccc(C#N)c2)C1C (stereo not given) | -10 | 0.99
C[C@H]1CCN(C(=O)c2cccc3c2CCCN3)[C@@H](C)C1 | 12 | -1.41
CC1=C[C@@H](c2ccc(Cl)cc2)N2N=CNC2=N1 | 29 | -3.28
Cc1nsc(NC(=O)c2cccc(=O)n2CCOc2ccccc2Cl)n1 | -9 | 1.42
CCc1oc(C(=O)NCCc2ccc(O)cc2)cc1CN(CC)CC | -8 | 1.62
CCC[C@@H](CNC(=O)[C@H]1CC[C@H](O)CC1)N(C)C | -1 | 0.18
CN(Cc1cc[nH]n1)c1ccc(F)cn1 | -5 | 0.9
